Source: patent US20130237415A1 (priority 2010, published 2013)

How the values were obtained:
[1] = test system: Fusarium verticillioides; settings: maize, with X-77 adjuvant 0.125% v/v
[2] = test system: Fusarium verticillioides and Fusarium graminearium; settings: with X-77 adjuvant 0.125% v/v

Prothioconazole
% Disease Severity % of Control ([1]; applied GS 51-55, 50 gai/ha): 51.6% | % Disease Severity Observed per Ear ([1]; applied GS 51-55, 50 gai/ha): 7.5% | Fusarium Efficacy Observed (%) ([1]; applied GS 51-55, 50 gai/ha): 48.4% | % Disease Severity % of Control ([1]; applied GS 51-55, 100 gai/ha): 88.4% | % Disease Severity Observed per Ear ([1]; applied GS 51-55, 100 gai/ha): 12.6% | Fusarium Efficacy Observed (%) ([1]; applied GS 51-55, 100 gai/ha): 11.6% | % Disease Severity % of Control ([1]; applied GS 51-55, 200 gai/ha): 74.7% | % Disease Severity Observed per Ear ([1]; applied GS 51-55, 200 gai/ha): 10.7% | Fusarium Efficacy Observed (%) ([1]; applied GS 51-55, 200 gai/ha): 25.3% | Maize Weight per maize Ear, Observed Mass (grams) ([2]; applied GS 51-55, 100 gai/ha): 104.0 grams | Maize Weight per maize Ear, Observed Mass (grams) ([2]; applied GS 51-55, 200 gai/ha): 107.8 grams

Where two headings read alike, the source gives them in different places.
